# This is one part of the list. Single values are uncertain, as repeats are few or missing.
# System: SkMel2
# Assay: cell count relative to DMSO control; melanoma cells; higher = more viable cells
# Conditions: library dose: standard library concentration; 72 h
# 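Also: cells treated in 1,536-well plates, then fixed and DAPI-stained, with nuclei counted from automated high-throughput microscope images.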
row,SMILES,cell count
1,"CS(=O)(=O)c1ccc(C(=O)Nc2ccc(Cl)c(-c3ccccn3)c2)c(Cl)c1 [vismodegib] + C[C@@H](Oc1cc(-c2cnn(C3CCNCC3)c2)cnc1N)c1c(Cl)ccc(F)c1Cl [Crizotinib] (first compound 5 µM, partner dose 1 µM)",90.2%
2,"C=C(c1ccc(C(=O)O)cc1)c1cc2c(cc1C)C(C)(C)CCC2(C)C [Bexarotene] + CC1(C)NC(=O)N(c2ccc([N+](=O)[O-])c(C(F)(F)F)c2)C1=O [nilutamide] (first compound 10 µM, partner dose 5 µM)",74.5%
3,"NC1(c2ccc(-c3nc4ccn5c(=O)[nH]nc5c4cc3-c3ccccc3)cc2)CCC1 + C[C@@H]1CCN(C(=O)CC#N)C[C@@H]1N(C)c1ncnc2[nH]ccc12 [CP690550] (first compound 2 µM, partner dose 5 µM)",64.7%
4,"CN(c1ncccc1CNc1nc(Nc2ccc3c(c2)CC(=O)N3)ncc1C(F)(F)F)S(C)(=O)=O + CC(=O)c1c(C)c2cnc(Nc3ccc(N4CCNCC4)cn3)nc2n(C2CCCC2)c1=O [palbociclib] (first compound 0.4 µM, partner dose 0.2 µM)",67.2%
5,"C=C(c1ccc(C(=O)O)cc1)c1cc2c(cc1C)C(C)(C)CCC2(C)C [Bexarotene] + CN(C)S(=O)(=O)c1ccc2c(c1)/C(=C/c1cc3c([nH]1)CCCC3)C(=O)N2 [SU6656] (first compound 10 µM, partner dose 2 µM)",104%
6,"CCCS(=O)(=O)Nc1ccc(F)c(C(=O)c2c[nH]c3ncc(Cl)cc23)c1F + O=C(O)c1ccc(-c2c[nH]c3ncc(-c4ccccc4)cc23)cc1C1CCCC1 [GSK650394] (first compound 0.4 µM, partner dose 0.8 µM)",67.7%
7,"CS(=O)(=O)c1ccc(C(=O)Nc2ccc(Cl)c(-c3ccccn3)c2)c(Cl)c1 [vismodegib] + CCCS(=O)(=O)Nc1ccc(F)c(C(=O)c2c[nH]c3ncc(Cl)cc23)c1F [PLX4720] (first compound 5 µM, partner dose 0.4 µM)",81.9%

# — the supplement of paper PMC4604168 (melanoma cell lines)
